Experimental data as given in PubChem BioAssay AID903 (National Center for Advancing Translational Sciences (NCATS), 2007).
The whole screen tested about 55,000 compounds, of which about 340 (0.62%) were called active. This list was built around the results that the source calls inconclusive (neither active nor inactive); the mix of calls is not that of the screen. Calls follow the shape of the dose curve; as a rule, active = well fitted cell-killing curve with a large enough effect; inconclusive = small, poorly fitted or top-dose-only effect; inactive = no such curve, though single readings can be large or run the other way. A potency beside an inconclusive call is a rough fit, not a confirmed value.

Assay: qHTS Screen for Compounds that Selectively Target Cancer Cells with p53 Mutations: Cytotoxicity of p53 Null Cells at the Permissive Temperature; also: nearly all actives have a fitted effect of over 55% in size
Conditions: H1299-neo p53 null cells, ATP luminescence, 24 h, 32C; series mostly up to 46.1 µM
How it was run: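 Luminescent ATP readout gave cell viability of p53-null H1299-neo cells after a 24 h compound exposure at the permissive 32C. Titrations ran up to 46 uM, and AC50s were fitted with the standard Hill equation.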
Potency is read from the fitted curve at half-maximal effect; tags tell the direction and shape of the fitted curve.

| SMILES | Potency |
| --- | --- |
| O=C(COc1ccccc1)NCCc1csc(-c2ccc(F)cc2)n1 | inactive |
| Cc1ccc(NC(=O)Cn2c(=O)n(CCc3ccccc3)c(=O)c3sc4ccccc4c32)cc1C | inconclusive: 22.4 µM [cytotoxic, single point] |
| CCOc1cccc2sc(NC(=O)c3ccc(S(=O)(=O)N4CCc5ccccc54)cc3)nc12 | inconclusive: 3.55 µM [cytotoxic, single point] |
| CC(=O)c1cccc(Nc2cc(C)nc3nc(-c4ccccc4C)nn23)c1 | inconclusive: 12.6 µM [cytotoxic, single point] |
| CCCNC(=O)c1ccccc1NC(=O)c1nsc2ccccc12 | inactive |
| CCCN(CCC)CCCNC(=O)C1CCN(c2nc3ccc(CC)cc3s2)CC1 | inconclusive: 10 µM [cytotoxic, partial curve] |
| COc1ccc(NC(=O)c2sc3nc4c(cc3c2N)CCCCCC4)cc1 | inconclusive: 31.6 µM [cytotoxic, single point] |
| COc1cc2nc(Nc3cccc(C)c3)nc(N)c2cc1OC | inconclusive: 22.4 µM [cytotoxic, partial curve, poor fit] |
| CCc1ccc(NC(=O)CC2C(=O)N(c3ccc(C)cc3)C(=O)N2C2CCCC2)cc1 (stereo not given) | inconclusive: 3.16 µM [cytotoxic, single point] |
| COc1cc(NC(=O)Cn2ccn(-c3cc(C)cc(C)c3)c(=O)c2=O)cc(OC)c1 | inactive |
| CCCN(CCC)CCCNC(=O)Cn1ncc2c3ccccc3n(Cc3ccccc3F)c2c1=O | inactive |
| CCOc1ccccc1N1CC(c2nc3ccccc3n2CCOc2ccc(C(C)(C)C)cc2)CC1=O (stereo not given) | inconclusive: 31.6 µM [cytotoxic, single point] |
| O=C1c2cccc(OCC(=O)N3N=C(c4cccs4)CC3c3ccc(F)cc3)c2CCN1Cc1ccccc1 (stereo not given) | inconclusive: 3.16 µM [cytotoxic, single point] |
| COc1cccc(-c2cnc(NCc3ccccc3Cl)n2C)c1 | inconclusive: 31.6 µM [cytotoxic, single point] |
| O=S(=O)(Nc1cccc(-c2ccc(N3CCOCC3)nn2)c1)c1ccc(F)cc1F | inconclusive: 10 µM [cytotoxic, partial curve] |
| Cc1ccc(C)c(CN2C(=O)c3ccccc3S(=O)c3ccc(C(=O)N(C)Cc4ccccc4)cc32)c1 (stereo not given) | inactive |
| Nc1ccc2nc(-c3cc(Cl)c(N)c(Cl)c3)[nH]c2c1 | inconclusive: 10 µM [cytotoxic, partial curve] |
| CCCCn1c(=O)c2oc3ccccc3c2n(CC(=O)Nc2ccccc2OC)c1=O | inactive |
| Cc1ccc(-n2c(=O)c3ccc(C(=O)NCc4ccccc4Cl)cc3n(CC(N)=O)c2=O)cc1 | inconclusive: 25.1 µM [cytotoxic, single point] |
| Cc1nn(CC(=O)NCc2ccccc2Br)c(=O)c2cc3occc3n12 | inconclusive: 0.0045 µM [cytotoxic, full curve, poor fit] |
| Cc1ccccc1CN1C(=O)C(O)(CC(=O)c2cccc(Br)c2)c2ccccc21 (stereo not given) | inconclusive: 31.6 µM [cytotoxic, single point] |
| CCOc1ccc(-c2nnc(SCC(=O)NCCc3ccccc3)nc2-c2ccc(OCC)c(OC)c2)cc1OC | inconclusive: 25.1 µM [cytotoxic, single point] |

| SMILES | Potency |
| --- | --- |
| COCCCn1c(=N)c(C(=O)NC2CCCC2)cc2c(=O)n3cc(C)ccc3nc21 | inactive |
| COC(=O)c1ccccc1NC(=O)CCCS(=O)(=O)c1nc(-c2ccccc2OC)cc(C(F)(F)F)n1 | inconclusive: 5.62 µM [cytotoxic, single point] |
| CCOC(=O)c1cc2c(=O)n3ccccc3nc2n(CC2CCCO2)c1=NC(=O)c1cc(C)cc(C)c1 (stereo not given) | inconclusive: 0.398 µM [cytotoxic, full curve] |
| N#C/C(=C\c1ccccc1F)c1nc2ccccc2c(=O)[nH]1 | inactive |
| Cc1cc(C)cc(NS(=O)(=O)c2ccc3[nH]cc(C(=O)NCc4ccco4)c(=O)c3c2)c1 | inconclusive: 0.631 µM [cytotoxic, full curve] |
| Cc1cccc(C)c1NC(=O)Cn1c(=O)n(Cc2ccccc2Cl)c(=O)c2cccnc21 | inconclusive: 2.51 µM [cytotoxic, full curve, poor fit] |
| COc1ccc(Cl)cc1NC(=O)CSc1nnc2[nH]c(=O)cc(-c3ccccc3)n12 | active: 2.51 µM |
| COc1ccccc1-c1nnc(C2CCN(C(=O)c3ccccc3C)CC2)o1 | inconclusive: 5.62 µM [cytotoxic, single point] |
| Cc1ccc(C(C)C)c(OCC(=O)Nc2cc(-c3nc4ccccc4[nH]3)ccc2C)c1 | inconclusive: 22.4 µM [cytotoxic, single point] |
| Cc1ccc(O)c(NC(=O)CCS(=O)(=O)c2nc(-c3cccs3)cc(C(F)(F)F)n2)c1 | inactive |
| O=C(Nc1ccccc1F)c1cnc(N2CCCCC2)c2ccccc12 | inconclusive: 5.62 µM [cytotoxic, single point] |
| CCOC(=O)CSc1nc2ccc(NC(=O)c3ccc(Cl)cc3)cc2s1 | inconclusive: 20 µM [cytotoxic, single point] |
| COC(=O)c1c(NC(=O)c2ccc(Cl)c(Cl)c2)sc2c1CCCC2 | inactive |
| CCc1ccc2oc(-c3cc(NC(=O)c4cccnc4)cc(C)c3O)nc2c1 | inconclusive: 31.6 µM [cytotoxic, single point] |
| CCOc1ccc(NC(=O)c2oc3ccccc3c2NC(=O)c2cc(C)cc(C)c2)cc1 | inconclusive: 3.55 µM [cytotoxic, single point] |
| COc1ccccc1C(=O)Nc1ccc(OCc2cc(=O)n3ccsc3n2)cc1 | inconclusive: 35.5 µM [cytotoxic, single point] |
| COc1cccc2cc(-c3nnc(Nc4c(F)cccc4F)s3)c(=O)oc12 | inconclusive: 0.316 µM [cytotoxic, full curve, poor fit] |
| Cc1ccc(Cn2c(CN3CCC(C(=O)NCCc4ccccc4)CC3)cc3ccccc32)cc1 | inactive |
| Cc1cccc2c1-c1sc(C(=O)N(C)c3cccc(C(F)(F)F)c3)cc1CO2 | inactive |
| CCOc1cccc(C2c3c(-c4cc(C)ccc4O)n[nH]c3C(=O)N2Cc2ccco2)c1 (stereo not given) | inconclusive: 25.1 µM [cytotoxic, single point] |
| O=C(CSc1ccccc1)Nc1ccc(-c2nc3ccccc3[nH]2)cc1 | inconclusive: 14.1 µM [cytotoxic, single point] |
| Cc1cc(C)c(NC(=O)Nc2ccc3snnc3c2)c(C)c1 | inactive |

| SMILES | Potency |
| --- | --- |
| O=C(CSc1nc2c([nH]c3ccccc32)c(=O)n1-c1ccc(Cl)cc1)N1CCOCC1 | inconclusive: 4.47 µM [cytotoxic, single point] |
| Cc1ccc(NC(=O)N2CCC(c3ccccc3)C2)cc1C (stereo not given) | inconclusive: 10 µM [cytotoxic, partial curve] |
| CC(=O)Nc1nonc1-c1nnc(SCC(=O)Nc2cc(C)cc(C)c2)n1-c1ccccc1 | inconclusive: 12.6 µM [cytotoxic, single point] |
| O=C(COc1ccccc1C(=O)c1cnn(-c2ccccc2)c1)Nc1ccccc1 | inconclusive: 2.24 µM [cytotoxic, full curve] |
| Cc1ccc(C(=O)c2cnc3cc4c(cc3c2S(=O)(=O)c2ccccc2)OCCO4)cc1 | inconclusive: 11.2 µM [cytotoxic, partial curve] |
| CCCCn1c(NCc2ccc(OC)cc2O)nc2ccccc21 | inactive |
| O=C(NNc1ncnc2c1cnn2-c1ccccc1)c1cccc(Cl)c1 | inconclusive: 12.6 µM [cytotoxic, partial curve] |
| Cc1ccnc(NC(c2ccccc2F)c2ccc3cccnc3c2O)c1 (stereo not given) | inactive |
| Cc1nc2sc(C(=O)NCc3ccc(Cl)cc3)c(NC(=O)c3ccccc3)c2c(C)c1C | inconclusive: 31.6 µM [cytotoxic, single point] |
| O=C(COc1ccccc1F)Nc1ccc(C(=O)OCc2cc(=O)n3nc(C4CC4)sc3n2)cc1 | inconclusive: 6.31 µM [cytotoxic, single point] |
| COc1cc(C(=O)NCC(c2cccnc2)N2CCN(c3ccc(F)cc3)CC2)cc(OC)c1OC (stereo not given) | inactive |
| CCc1ccc(N=C2NC(=O)CC(C(=O)Nc3ccc(OC)cc3)S2)cc1 (stereo not given) | inactive |
| Cc1ccc(-c2cc(C(=O)NCc3cnn(C)c3C)c3cc(Br)ccc3n2)cc1 | inconclusive: 10 µM [cytotoxic, partial curve] |
| Cc1ccc(NC2=C(c3ccc(C(F)(F)F)cc3)C(=O)c3ccccc32)cc1C | inconclusive: 31.6 µM [cytotoxic, single point] |
| CCOc1ccc(-c2nonc2NC(=O)c2oc3cc(C)ccc3c2C)cc1 | inactive |
| Cc1ccc(O)c(C(CC(=O)NCC2(c3ccccc3)CCCC2)c2ccccc2)c1 (stereo not given) | inconclusive: 25.1 µM [cytotoxic, single point] |
| CCOc1ccc(CNC(=O)C2CCN(c3nnc(-n4cccc4CNc4ccc(C)cc4)s3)CC2)cc1OC | inconclusive: 0.0708 µM [cytotoxic, full curve] |
| CCOC(=O)CSc1nc2ccc(NC(=O)c3ccc(C)cc3)cc2s1 | active: 10 µM |
| CCC(CC)c1nn2c(=O)cc(COc3ccc(NC(=O)c4ccccc4C)cc3)nc2s1 | inconclusive: 0.501 µM [cytotoxic, full curve] |
| COc1ccc(-c2nnc(N(C)C(=O)C3CCCO3)s2)cc1 (stereo not given) | inconclusive: 12.6 µM [cytotoxic, partial curve] |
| Cc1ccc(-n2ncc3c(NCCO)ncnc32)cc1Cl | inconclusive: 20 µM [cytotoxic, partial curve] |
